The whole screen tested about 150,000 compounds, of which about 540 (0.36%) showed an effect of 50% or more. This is one part of the list.

The source of these data is ChEMBL document CHEMBL4888484, “Replenishing the malaria drug discovery pipeline: Screening and hit evaluation of the MMV Hit Generation Library 1 (HGL1) against asexual blood stage Plasmodium falciparum ,using a nano luciferase reporter read-out” (2022).

The test system of the assay is Plasmodium falciparum. The experiment in a line: Primary screen in NF54 nanoGlo assay, in single point, at 2uM, 72h; a lower Z score goes with more inhibition. It is filed as functional, Erythrocyte. Conditions: timepoint 72 hour.
As for `O=C(CCn1cccn1)N1C[C@H]2CC[C@@H](C1)N(Cc1ccccn1)C2=O`, the % Inhibition (in general, the drop in the measured response relative to a control, in per cent) is -6% and the Z score was found to be 0.54.
`O=C(C1C2CCCC21)N1CCCC(CO)C1` (stereo unspecified): the “% Inhibition” value is -4% and the Z score came out at 0.46.
For `CC#CC(=O)N[C@H]1CCCc2sc(-c3ccc(F)cc3)nc21`, in that order: -33% and 4.65.
The like results for `NC(=O)CO[C@H]1COCC[C@@H]1NC(=O)c1cccc(Cl)c1Cl` were, in that order, -8% and 1.02.
The like results for `Cc1nc(-c2ccc(Cl)c(S(=O)(=O)N3CCC(C(=O)N4CCCCCC4)CC3)c2)no1` were, in that order, 2% and -0.29.
Regarding `CC(=O)Nc1c2n(c3ccccc13)C[C@@](C)(C(=O)NC1CCCC1)N(C1CCCCC1)C2=O`, the “% Inhibition” value is listed as -20% and the Z score was determined as 1.89.
The like results for `COc1ccc(CNCc2ccc(C)cc2)cc1Cn1ccnc1` were, in that order, 44% and -7.64.
For `c1coc(C2=Nc3ccccc3NCC2)c1`, in that order: 1% and -0.22.
The like results for `CC(C)(C)c1nccn1CCCn1ccnc1` were, in that order, -1% and 0.16.
In the case of `O=C(c1coc(COc2cccc(F)c2)n1)N1CCN(c2ccccn2)CC1`, the “% Inhibition” value is on record as -6% and the Z score is recorded as 0.94.
With `COc1cccc(F)c1NC(=O)N1CCC(Cn2ccnn2)CC1`, the “% Inhibition” value is reported as -8% and the Z score is reported as 1.49.
The like results for `Cc1cc(-c2ccc(S(=O)(=O)Nc3cccc(Cl)c3)o2)on1` were, in that order, 2% and -0.31.
For `CS(=O)(=O)N1CC(C(=O)N2C3CCC2CC(CC(F)F)C3)C1` (stereo unspecified), in that order: -9% and 1.09.
The like results for `CC[C@@H](C(=O)NC1(c2cc(F)cc(F)c2)CC1)N1CCOCC1` were, in that order, -8% and 1.17.
For `Cc1nc(C)c(NS(=O)(=O)c2ccc3c(c2)CCCC3)s1`, the “% Inhibition” value was -8% and the Z score was 0.94.
For `O=S1(=O)CC[C@H](NS(=O)(=O)c2cccc(C(F)(F)F)c2)c2cc(Cl)ccc21`, in that order: -4% and 0.52.
For `c1cc(OCc2ccc3c(c2)OCCO3)ccc1CNC[C@H]1CCCO1`, in that order: -8% and 0.71.
The like results for `CC[C@H](NC(=O)C(C)C)C1=CCCN(Cc2ncccn2)C1` were, in that order, -12% and 2.11.
Turning to `NC(=O)c1c(NC(=O)CNC2CCCC2)sc2c1CCCC2`, the “% Inhibition” value was -13% and the Z score amounted to 1.13.
The like results for `COc1ccc(C)cc1S(=O)(=O)Nc1ccn2nccc2c1` were, in that order, -7% and 1.08.
The like results for `COc1cccc(C(=O)N2CCCN(c3nc4c(s3)c(C)nn4-c3ccc(C)cc3)CC2)c1OC` were, in that order, 6% and -1.01.
Take `COc1ccc(OCc2cc(C(=O)NCc3n[nH]c(C)n3)n[nH]2)c(Cl)c1`: the “% Inhibition” value is -4% and the Z score was determined as 0.87.
Consider `O=C(c1ccc[n+]([O-])c1)N1CCC[C@H](Cc2nc(C3CC3)no2)C1`, for which the “% Inhibition” value is recorded as -9% and the Z score was found to be 1.59.
